From publication PMC2733743 (The Journal of Cell Biology, 2009)

Target: purified recombinant murine cortactin WT (murine, UniProt Q60598 1-546)
Assay: pull-down

Chain of UniProt Q60598 (Q60598 whole entry): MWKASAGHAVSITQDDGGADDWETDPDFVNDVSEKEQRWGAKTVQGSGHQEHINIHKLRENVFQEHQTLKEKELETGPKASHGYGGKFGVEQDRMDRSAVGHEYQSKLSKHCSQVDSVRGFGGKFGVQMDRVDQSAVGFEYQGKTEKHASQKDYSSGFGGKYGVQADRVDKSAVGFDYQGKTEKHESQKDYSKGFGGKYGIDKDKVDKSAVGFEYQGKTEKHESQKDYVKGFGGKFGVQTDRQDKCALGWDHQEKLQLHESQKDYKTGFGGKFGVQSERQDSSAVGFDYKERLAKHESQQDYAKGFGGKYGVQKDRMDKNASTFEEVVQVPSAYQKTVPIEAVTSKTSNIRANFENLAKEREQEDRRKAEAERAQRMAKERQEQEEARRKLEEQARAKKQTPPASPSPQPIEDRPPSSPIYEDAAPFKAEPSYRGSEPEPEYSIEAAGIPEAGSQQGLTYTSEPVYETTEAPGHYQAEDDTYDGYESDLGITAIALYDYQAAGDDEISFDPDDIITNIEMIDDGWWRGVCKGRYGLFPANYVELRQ

B1: purified recombinant cofilin (natural protein)
chain: not shown
Kd: 3.5 ± 1.1 µM
